Results published in the RNAGym collection of RNA variant scans (doi:10.1093/nar/gkz1192).
Read counts are not given, so values of variants with three or more changes are uncertain.

B1: CPEB3 Ribozyme (parent)
chain: UAACAGGGGGCCACAGCAGAAGCGUUCACGUCGCAGCCCCUGUCAGAUUCUGGUGAAUCUGCGAAUUCUGCUGUAUAUCUC

Variants of: B1
Assay: self-cleavage, relative activity (ratio to wild type); higher = more cleavage; in vitro, sequencing
In short: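 For each CPEB3 ribozyme variant, relative activity is its cleaved/total read fraction divided by the unmutated ribozyme's. Barcoded error-prone PCR libraries were transcribed by T7 RNA polymerase (5 hours, 37°C) and held in DNase I for 15 min before an EDTA stop, with cleavage occurring throughout. Template-switching reverse transcription and Illumina sequencing were used to read the RNAs. A 5-read minimum applied, and results are the mean of three batches.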

Variant | self-cleavage
UGACAGGGGGCCACAGCAGAAGCGUUCACGUCGCAGCCACUGUCAGAUCCUGGUGAAUCUGCGAAUUCUGCUGUAUAUCUC | 0.05
UGACAGAGGGCCACAGCAGAAGCGUUCACGUCGCAGCCCCUGGCAGAUUCACGUGAAUCUGCGAAUUCUGCUGUAUACCUC | 0.04
UGACAGGGGGCCACAGCAGAAGCGUUCACGUCGCAGCCCUUGUCGGAUUCUGGUGAAUCUGCGAAUUCUGCUGCAUAUCUC | 0.31
UGACAGGAGGCCACAGCAGAAGCGUUCACGCCGCAGCCCCUGCCAGAUUCUGGUGAAUCUGCGAAUUCUGCUGUAUACCCC | 0.07
UGACAGGAGGCCGCAGCAGAAGCGUUCACGUCGCAGCACAUGUCUGAUUCUGGUGAAUCUGCGAAUUCGGCUGUAUAUCUC | 0.04
UGACAGGGGGCCACAGCAGAAGCGUUCACGUCGCAGUCCCUGUCAGAUUCUGGAGAAUCUGCGAAUUCUGCUGUAUACCUC | 0.3
UGACAAGGGGCCACGGCAGAAGCGUUCACGUCGCAGCCCCAGUCAGAUUCUGGUGAAUCUGCGAAUCCUGCUGUAUAUCUC | 0.08
UGACAGGGGGCCACAGCAGAAGCGUUCACGUCGCAGCCCCUGUCAGAUUCUGGUGAAUCUGCGAAUUUUGCGGUAUAUCUC | 0.14
UGACAGGGAGCCACAGCAGAAUCGUUCACGUCGCAGCCCCUGUCAGAUUCUGGUGAAUCUGCGAAUUCUGCUGUAUAUCUC | 0.09
UGACAGGAGGCCACAGCAGAAGCGUUCACGUCGCAGCCCCUGUCGGAUUCUGGUGAAUCUGCGAAUUCUGCCGUAUAUCUC | 0.42
UGACAUGGGGCCACGGCAGAAGCGUUCACGUCGCAGCCCCUGUCAGAUUCUGGUGAAUCUGCGAAUUCUGCUGUAUACCUC | 0.3
UGACAGGAGGCCACAGCAGAAGCGUACACGUCGCAGCCCCUGUCAGAUUCUGGUGAAUCUGCGAAUUCUGCUGUAUAUCUC | 0.08
UGACAGGAGGCCACAGCAGAAGCGUUCACGUCGCAGCCCACGUCAGAUUCCGGUGAAUCUGCAAAUUCUGCUGUAUAUCUC | 0.07
UGACAGGGGGCCACAGCAGAAGCGUUCAGGUCGCAGCCCCUGUCAGAUUCUGGUGAAUCUGCGAAUUCUGCAGUAUAUCUC | 0.37
UGACAGGCCGCCACAGCUGAAGCGUUCACGCCGCAGCCCCUGUCAGAUUCUGGUGAAUCUGCGAAUUCUGCUGUAUAUCUC | 0.1
UGACAGGGGACCCCAGCAGAAGCGCUCACGUCGCAGCCCCUGUCAGAUUCCGGUGAAUCUGCGAAUUCUGCUGUAUAUCUC | 0.61
UGACAGGGUGCCACGGCAGAAGCGUUCACGUCGCAGCCCCGGUCAGAUUCUGGUGAAUCCGCGAAUUCUGCCGUAUAUCUC | 0.03
UGACAGGGUGCCAUAGCAGAAUCGUUCACGUCGCAGCCCCUGCCAGUUUCUGGUGAAUCUGCGAAUUCUGCUGUAUAUCUC | 0.13
UGACAAGGGGCCACAGCAGGAGCGUUCACGUCGCAGCCCCCGUCAGAUUCUGGUGAAUCAGCGAAUUCUGCUGUAUGUCUC | 0.05
UGACAGGGUGACACAGCAGAUGCGUUCACGUCGCAGCCCCUGUCAGACUCUGGUGAAUCUGCGAAUUCUGCCGUAUAUCUC | 0.16
UGACAGGGGGCCACAGCAGAAGCGUUCACGUCGCAGCCCAUGUCAGAUUCUGGUGAAUCUGCAAAUUCUGCUAUAUAUCUC | 0.47
UGACAGGAGGCCACAGCAGAGGCGUUCACGUCGCAGCCCCUGUCAGACUCUGGUGAAUCUGCGAAUUCUGCUGUAUAGCUC | 0.03
UGACAGAGGGCCGCAGCAGAAGCGUUCACGUCGCGGCCCCUGUCAGAUUCUGGGGAAUCUGCGAAUUCUGCUGGAUAUCUC | 0.43

Variant | self-cleavage
UGACAUGGGGCCACAGCAGAAGCGCUCAUGUCGCAGCCCCUGUCAGAUUCUGGUGAAUCUGCGAAUUCUGCUGUAUAUCUC | 0.09
UGACAGAGGGCCACGGCAGAAGCGUUCACGUCGCAGCCCCUGUCAGAUUCUGGUGAAUCUGCGAAUUCUGCUGUAUAUCAC | 0.17
UGACAGGGUGCCACAGCAGAAGCGUUCACGUCGCAGCCCCUGUCAGAUUCUGGUGAAUCUGCGAAUUCUGCUGAAUAUCUC | 0.38
UGACAAGGGGCCACAGCAGAAGCGUUCACGUCGCAGCCCCCGUCAGAUUCUGGUGAAUCAGCGAAUACUGCUGUAUAUCCC | 1.05
UGACAAGGGGUCACAGCGGAAGCGUUCACGUCGCAGCCCCUGUCAGAUUCUGGUGAAUCUGCGAAUUCUGCUGUAUAUCUC | 0.1
UGACAGGAGGCCACAGCUGAAGCGUUCACGUCGCAGCCCCUGUCGGAUUCAGGUGAAUCUGCGAAUUCUGCUGUAUAUCUC | 0.19
UGACAGGGAGCCACAGCAGAAGCGUUCACGUCGCAGCCCCUGUCAGAUUCUGGUGGAUCUGCGAAUUCUGCUGUAUUUCUC | 0.09
UGACACGGGGCCUCAGCAGAAUCGUUCACGUCGCAGCCCCUGUCAGAUUCUGGUGAAUCAGCGUAUUCUGCUGUAUAUCUC | 0.07
UGACAGGAGGCCACAGCAGAAGUGUUCACGUCGCAGCCCCUGUCGGAUUCUGGUGAAUCAGCGAAUUCUGCUGUAUAUCUC | 0.05
UGACAGGGGGCCACAGCAGAAGUGUUCACGUCGCAGCCCCUGUCAGAUUCUGGUGAAUCUGCGAAUUCUGCUGUACAUCUC | 0.38
UGACAGGGGGCCACAGCAGAAGUGCUCACGUCGCAGCCCCUGUCAGGUUCCGGUGAAUCUGCGAAUUCUGCUGUAUAUCUC | 0.04
UGACAGGGAGCCACUGCAGAAGCGUUCACGUCGCAGCCCCUGUCAGAUUCUGGUGAAUCUGCGAAUACUGCUGUAUAUCCC | 0.09
UGACAGGCGGCCACAGCAGAAGCGUUCACGUCGCAGCCCCUGUCAGAUUCGGGUGAAUCUGCGUAUUCUGCUGUAUAUCCC | 0.07
UGACAGGUGGCCACAGCAGGAGCGUCCACGUCGCAGCCCCUGCCAGAUCCCGGUGAAUCUGCGAAUUCUGCUGUAUAUCUC | 0.63
UGACAAGGGGCCACAUCAGGAGCGUUCACGUCGCAGCCCCUGUCAGAUUCUGGUGAAUCUGCGAAUUCUGCUGUAUAUCUC | 0.4
UGACAGAGGGCCACAGCAGAAGCGUUCAGGUCGCAGCCCCUGUCAGAUUCUGGUGUAUCUGCGAAUUCUGCUGUAUACCCC | 0.1
UGACAGGGUGCCACAGCAGAAGCGUUCACGUCGCAGCCCCUGUCAGAUUCUGGUGAAUCUGCGAAUUCAGCUGUAUAUCUC | 0.29
UGACAGCGGGCAACAGCAGAAGCGUUCACGUCGCAGCCCUUGUCAGAUACUGGUGAAUCUGCGAAUUCUGCUGUAUAUCUC | 0.06
UGACAGGGGGCCACAGCAGAAGGGUUCACGUCGCAGCCCCUGUCAGAUUCAGGAGAAUCUGCGUAUUCUGCUGUAUAUCCC | 0.05
UGACAGGGGGCCACAGCAGAAGCGUUCACGUCGCAGCCCCUGUCAGAUUCUGGUGAAUGUGCGAAUUCAGCUGUAUAUCUC | 0.11
UGACAAGGGGCCGCAGCAGAAGCGUUCACGUCGCAGCCCCCGUCAGAUUCUGGUGAAUCGGCGAAUUCUGCUGUAUAUCUC | 0.06
UGACAGGGGGCCACAGCAGAAGUGUUCACGUCGCAGCCCCUGUCAGAUACUGGUGAAUCUGCGUAUUCUGCUGUAUAUCUC | 0.08
UGACAGGGGGCCACAGCAGAAGCGUUUGCGUCGCAGCCCCUGUCAGAUUCUGGUGAAUCUGCUAAUUCUGCUGUAUAUCUC | 0.49

Variant | self-cleavage
UGACAUGGGACCACGACAGAAGCGUUCUCGUCGCAGCCCCUGUCAGAUUCUGGUGAAUCUGCGAAUUCUGCUGUAUAUCAC | 0.1
UGACAGAGGGCCACAGCAGAAGCGUUCACGUCGCAGCCCCUGUCAGAUUCUGGUGAAUCUGCGAAUUCUGCCGUAUACCUC | 0.45
UGACAGGGGACCUCAGCAGAAGCGUUCACGUCGCAGCCCCUAUCAGAUCCUGGUGAAUCUGCGAAUCAUGCUGUAUAUCUC | 0.04
UGACAGGGGGCCACAGCAGAAGCGUUCACGUCGCAGCCCUUGUCAGAUUCCGGUGAAUCAGCGAAUUCUGCUGUAUAUCUC | 0.2
UGACAGGGAGCCACAGCAGAAGCGUACACGUCGCAGCCCCUGUCAGAUUCUGGUGAAUCUGCGAAUUCUGCUGUAUAUCUC | 0.35
UGACAGGGUGCCACAGCAGAAGCGCUCACGUCGCAGCCCCUGACAGAUUCAGGUGAAUCUGCGAAUUCUACUGUAUAUCUC | 0.07
UGACAGGCGGACGCCGCAGAAGCGUUCACGUCGCAGCCCCUGUCAGAUUCUGGUGAAUCUGUGAAUUCCGCUGUAUAUCUC | 0.07
UGACAGGAGGCCACAGCAGAAGCGUUCACGUCUCAGCCCCUGCCAGAUUCUGGUGAAUCUGCGAAUUCUGCUGUAUAUCUC | 0.08
UGACAGGGGGCCACAGCAGAAGUGCUCACGUCGCAGCCCCUGUCAGAUUCUGGUGAAUCUGCGAAUUCUGCUGUAUAUCUC | 0.08
UGACAGGAGGCCACAGCAAAAGCGUUCACGUCGCAGCCCCUGUCAGAUUCUGGUGAAUCUGCGAAUUCUGCUGUAUAUCUC | 0.45
UGACAGGGGACCACCGCAGAAGCGUUCACGUCGCAGCCCCUGUCAGAUUCUGGUGAAUCUGCGAAUUCUGCUGUAUAUCUC | 0.43
UGACAGGAGGCCACAGCAGAAGCGUUCUCGUCGCAGCCCCUGUCAGAUUCUGGUGAAUCUGCGGAUUCCGCCGUAUAACUC | 0.05
UGACAGUGGGCCUCAGCAGAAGCGUUCACGUCGCAGCCCCUGUCAGAUUCUGGUGAAUCUGCAAAUUCUGCUGUAUAUCUC | 0.07
UGACAGGGGGCCACAGCAGAAGCGUUCACGUCGCAGCCCCUGUCAGAUUGUGGUGAACCUGCGAACUCUGCUGUAUAUCCC | 0.1
UGACAUGGGGCCACAGCAGAAGCGUACACGUCGCAGCCCCUGUCAGAUUCUGGUGAAUCUGCGAAUUCUGCUGUAUAUCUC | 0.64
UGACAAGGGGCCACAGCAGGAGCGUUCACGUCGCAGCCCCCGGCAGAUCCUGGUGAAUCAGCGAAUUCUGCUGUAUAUCUC | 0.05
UGACAAGGGGCCACAGCAGAAGCGUUCACGUCGCAGCCCCUGUCAGAUUCUGGUGAAUCUGCGAAUUCUGCUGUAUACCUC | 0.44
UGACAUGGGGCCACAGCAGAAGCGUUCACGUCGCAGCCCCUGACGGAUUCUGGUGAAUCUGCGAAUUAGGCCGUAUAUCUC | 0.28
UGACAGGGGGCCACAGCAGAAGUGCUCGCGUCGCAGCCCCAGUCAGAUUCUGGUGAAUCAGCGAAUUCUGCUGUACAUCUC | 0.15
UGACACGGGGCUACAGCAGAAGCGUUCACGUCGCAGCCCCUGUCAGAUUCUGGUGGAUCUGCGAAUUUUGCUGUAUAUCUC | 0.07
UGACAGGGAGCCACAGCAGGAGCGUUCAAGUCGCAGCCCCUGUCAGAUUCUGGCGAAUCUGCGAAUUCUGCUGUAUAUCUC | 0.09
UGACAGAGGGCCACCGCAGAGGCGUUCGCGUCGCAGCCCCUGUCAGAACCUGGUGAAUCUGCGAAUUCUGCUGUAUAUCUC | 0.04
